Hit rate of the full screen: of about 310,000 compounds, about 14,000 (4.5%) showed an effect of 50% or more. Effects have a minus sign here. The list shows a part of the results.
These compounds were tested against human ether-à-go-go-related gene (hERG) potassium channel (human, UniProt Q12809) (assay: primary screen, population patch clamp on CHO cells stably expressing hERG).
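Further: peak tail current of the secondary pulse compared with the same well before compound.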

human ether-à-go-go-related gene (hERG) potassium channel, sequence (Q12809 whole entry, looked up): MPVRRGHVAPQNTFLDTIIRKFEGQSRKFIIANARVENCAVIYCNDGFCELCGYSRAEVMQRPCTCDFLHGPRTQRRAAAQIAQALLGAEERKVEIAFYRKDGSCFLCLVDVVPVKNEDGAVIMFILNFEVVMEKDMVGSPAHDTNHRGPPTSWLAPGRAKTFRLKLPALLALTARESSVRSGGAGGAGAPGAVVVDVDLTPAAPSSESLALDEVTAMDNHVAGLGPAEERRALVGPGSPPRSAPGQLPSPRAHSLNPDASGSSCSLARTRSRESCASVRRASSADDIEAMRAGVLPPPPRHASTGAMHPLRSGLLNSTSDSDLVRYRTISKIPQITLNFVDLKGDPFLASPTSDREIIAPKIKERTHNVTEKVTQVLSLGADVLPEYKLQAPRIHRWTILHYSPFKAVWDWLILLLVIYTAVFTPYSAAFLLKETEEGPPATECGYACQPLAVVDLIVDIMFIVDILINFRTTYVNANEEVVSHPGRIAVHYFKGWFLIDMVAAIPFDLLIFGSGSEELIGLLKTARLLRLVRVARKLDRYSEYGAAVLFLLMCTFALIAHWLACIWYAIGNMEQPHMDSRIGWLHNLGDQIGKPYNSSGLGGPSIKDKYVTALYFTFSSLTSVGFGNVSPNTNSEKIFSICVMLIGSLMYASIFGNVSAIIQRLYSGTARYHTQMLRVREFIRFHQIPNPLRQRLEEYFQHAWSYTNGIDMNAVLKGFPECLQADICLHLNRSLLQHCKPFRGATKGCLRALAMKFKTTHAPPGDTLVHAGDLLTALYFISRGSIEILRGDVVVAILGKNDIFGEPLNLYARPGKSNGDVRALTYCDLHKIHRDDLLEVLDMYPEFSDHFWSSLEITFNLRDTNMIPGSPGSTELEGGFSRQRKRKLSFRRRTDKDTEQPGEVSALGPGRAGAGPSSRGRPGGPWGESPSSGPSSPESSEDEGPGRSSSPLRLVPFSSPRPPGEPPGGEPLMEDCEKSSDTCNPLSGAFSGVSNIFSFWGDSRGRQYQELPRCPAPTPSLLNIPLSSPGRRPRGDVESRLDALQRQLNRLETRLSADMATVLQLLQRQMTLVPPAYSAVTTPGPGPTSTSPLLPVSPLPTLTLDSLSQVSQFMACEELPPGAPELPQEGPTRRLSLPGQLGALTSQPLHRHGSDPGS

| Structure (SMILES) | hERG current change (%, negative = inhibition) at 10uM |
| --- | --- |
| Cc1cc(C)c(S(=O)(=O)Nc2c(C)[nH]c(=O)[nH]c2=O)c(C)c1 | 4.92% |
| CCN(CC)c1ccc(S(=O)(=O)N2CCOCC2)cc1NC(=O)CNCc1ccccc1.O=C(O)C(=O)O | -20.9% |
| Cc1cc(S(=O)(=O)NCCN(C)C)c(C)s1.Cl | 11.5% |
| CCCNC(=O)CN1C(=O)NC(c2ccccc2)(c2ccccc2)C1=O | -3.7% |
| Oc1ccc(C[C@@H]2CNCCN2CCc2cc(C(F)(F)F)cc(C(F)(F)F)c2)cc1 | -49.6% |
| CCC(=O)N1CCN(C(C)=O)C1c1ccccc1 (stereo not drawn) | 11.7% |
| Cc1c(-c2ccc(Br)cc2)[n+](=O)c2c(n1[O-])CCCC2 | 15% |
| O=C(c1cc2cc(F)ccc2[nH]1)N1CCc2ccccc2C1 | 14.3% |
| Cc1cccc2cc(CN(Cc3ccc(F)cc3)C(=O)N3CCOCC3)c(=O)[nH]c12 | -14.2% |
| Cc1cc(Cl)ccc1OCCCC(=O)OCC(=O)c1c(N)n(C)c(=O)n(C)c1=O | -21.8% |
| O=C(Nc1ccccc1Cl)C1(c2ccccc2)CC1(Cl)Cl (stereo not drawn) | -0.213% |
| COc1ccc(-n2c(SCC(=O)N3CCCCC3C)nnc2-c2cccnc2)cc1 (stereo not drawn) | -18.5% |
| O=C(N/N=C/c1ccc(O)cc1O)c1ccncc1 | 8.11% |
| CCC(NC(=S)NC1CCCCC1)c1ccc(C)cc1 (stereo not drawn) | 8.56% |
| O=C(NC(=S)NC1CCS(=O)(=O)C1)c1ccccc1Br (stereo not drawn) | 16.3% |
| O=C(N/N=C/c1cc([N+](=O)[O-])ccc1Cl)c1ccc2nc[nH]c2c1 | -3.36% |
| COc1ccc(N2CCN(C(=O)CNC(=O)c3ccco3)CC2)cc1 | 7.74% |
| O=C(CN1c2cccc3cccc(c23)S1(=O)=O)NCc1ccc2c(c1)OCO2 | -18.3% |
| CC1CCN(C(=O)c2cc(-c3ccc4c(c3)OCO4)on2)CC1 | -26.7% |
| NC(=O)c1ccsc1NC(=O)COC(=O)c1ccc(Cl)cc1 | -5.38% |
| CCOC(=O)CC(=O)CSc1nc(N)c(C#N)c(-c2ccc(F)cc2)c1C#N | -0.677% |
| CCOc1ccc(NS(=O)(=O)c2ccc(OCC(=O)NCc3ccncc3)cc2)cc1 | 6.55% |
| CC(C)c1ccc(CNC(=O)C2CC(=O)N(C3CCCCC3)C2)cc1 (stereo not drawn) | -6.47% |

| Structure (SMILES) | hERG current change (%, negative = inhibition) at 10uM |
| --- | --- |
| COc1ccc(N2C(=O)C3CCCN3C2c2cccc(OC)c2OC)cc1 (stereo not drawn) | 0.464% |
| NC/C(=N\O)c1ccc(Cl)cc1Cl | 5.32% |
| Cc1ccccc1C(=O)N/N=C1\SCC(=O)N1Cc1ccco1 | 1.02% |
| COCc1cc(C)nc(N/N=C/c2ccc(-c3ccc(C(=O)O)c(Cl)c3)o2)c1C#N | 24.6% |
| CC(=O)c1ccc(NC(=O)c2ccc(S(=O)(=O)N3CCCC3)cc2)cc1 | -2.94% |
| Cc1ccc(-c2nnc(NCc3nc4ccccc4[nH]3)c3ccccc23)cc1S(=O)(=O)N1CCCCC1.Cl | -7.08% |
| Cc1cc(=O)[nH]c(N/N=C/c2c(O)n(-c3ccccc3)c(=O)c3ccccc23)n1 | 0.166% |
| c1ccc(OCc2nnnn2-c2ccccc2)cc1 | -0.317% |
| COc1ccc2[nH]c(=O)c(CN(CC3CCCO3)C(=O)Nc3ccccc3)cc2c1 (stereo not drawn) | -2.72% |
| CCOC(=O)c1sc(NC(=O)c2ccccc2OCC)nc1C | -16.3% |
| COc1ccc(/C=C/C(=O)Nc2cccc(N3CCOCC3)c2)cc1OC | -3.02% |
| CCc1ccc(CN(C)C(=O)c2cc(COc3c(F)cccc3F)on2)cc1 | -2.23% |
| Cc1cc(C)c(NC(=S)NCCO)c(C)c1 | -0.436% |
| CCN(c1ccccc1)S(=O)(=O)c1ccc(Cl)c(NC(=O)CN(C)C2CCN(C)CC2)c1 | -38.8% |
| COc1ccc(-c2cnnn2-c2ccc([N+](=O)[O-])cc2)cc1 | -64.6% |
| CCOc1ccc(NC(=S)Nc2cc(C)[nH]n2)cc1 | 0.731% |
| CC1(C)CN(c2ccsc2C(=O)O)C1=O | 10.9% |
| COc1cc(/C=C2\N=C(c3ccccc3)NNC2=O)cc(OC)c1OC | 14% |
| Cc1c(C#N)c2ncn(Cc3ccccc3)c(=O)c2n1-c1ccccc1 | 1.55% |
| CCC(C)(C)NC(=O)C(c1ccc(OC)cc1)N(Cc1ccc(OC)cc1)C(=O)CCC(=O)Nc1cc(C)on1 (stereo not drawn) | 8.17% |
| O=C(CCS(=O)(=O)c1ccc(Br)cc1)Nc1cc(F)ccc1F | 1.3% |
| CCOc1ccc(OCC)c(C2C(C#N)=C(N)N(c3cccnc3)C3=C2C(=O)CC(C)(C)C3)c1 (stereo not drawn) | 0.96% |
